The results in this text go back to the supplement of paper PMC9446081.

Hit rate of the full screen: of about 39,000 compounds, about 220 (0.56%) showed activity. Some of the results follow.
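Further: static incubation at 37 °C against the wild-type strain, values averaged over two biological replicates.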

This test relates to Escherichia coli K-12 BW25113. As to the kind of experiment: relative growth (OD600 normalised to plate interquartile mean) (fraction); higher = less growth inhibition, active = 0.2 or less. The note with it: 50 µM; LB; incubation time: overnight (16-24 h).
Turning to `COC1C(O)CC(=O)OC(C)CC=CC=CC(OC2CCC(N(C)C)C(C)O2)C(C)CC(CC=O)C1OC1OC(C)C(OC2CC(C)(O)C(O)C(C)O2)C(N(C)C)C1O` (centres undefined), the relative growth was inactive: 0.819.

Take `Cc1ccc(S(=O)(=O)N(C)C[C@H]2Oc3ccc(NS(=O)(=O)c4c(C)noc4C)cc3C(=O)N([C@H](C)CO)C[C@@H]2C)cc1`: the relative growth is inactive: 1.01.

With `C[C@@H]1CN([C@H](C)CO)C(=O)Cc2cc(NC(=O)Cn3cnnn3)ccc2O[C@@H]1CN(C)C(=O)Nc1ccc(C(F)(F)F)cc1`, the relative growth was inactive: 0.957.

As to `C[C@H]1CN([C@@H](C)CO)C(=O)Cc2cc(N(C)C)ccc2O[C@@H]1CN(C)S(=O)(=O)c1ccc(Cl)cc1`, the relative growth was inactive: 0.987.

On to `Cc1ccc(S(=O)(=O)Nc2cccc3c2O[C@@H](CN(C)S(=O)(=O)c2ccc(F)cc2)[C@@H](C)CN([C@H](C)CO)C3=O)cc1`, for which the relative growth was inactive: 1.04.

For `Cc1ccc(S(=O)(=O)N2C[C@@H](O)COC[C@@H]3O[C@@H](CC(=O)NCCCN(C)C)CC[C@H]32)cc1`, the relative growth is inactive: 0.988.

Regarding `COc1ccc([Si](C)(C)[C@H]2[C@H](CCOC(=O)NCCCCCC(=O)NO)O[C@]3(C(=O)N(Cc4cccc(N5CCCCC5=O)c4)c4ccccc43)[C@@H]2C)cc1`, the relative growth was inactive: 1.02.

With `C[C@@H]1CN([C@@H](C)CO)C(=O)CCCn2cc(nn2)CO[C@H]1CN(C)Cc1cccc2c1OCCCO2`, the relative growth is inactive: 0.992.

`COc1ccc(NC(=O)Nc2cccc3c2O[C@H](CN(C)Cc2ccc(-c4ccccc4)cc2)[C@H](C)CN([C@@H](C)CO)C3=O)cc1`: the relative growth was inactive: 0.97.

In the case of `C[C@@H]1CN([C@@H](C)CO)C(=O)c2cccc(NC(=O)Nc3ccc(C(F)(F)F)cc3)c2O[C@@H]1CN(C)C(=O)Nc1ccc2c(c1)OCO2`, the relative growth was inactive: 0.986.

Regarding `CCNC(=O)[C@H]1[C@H](CO)[C@H]2Cn3c(ccc(-c4ccc(OC)cc4)c3=O)[C@@H]1N2S(C)(=O)=O`, the relative growth was inactive: 1.01.

On to `C[C@H]1CN([C@@H](C)CO)C(=O)c2cc(NC(=O)Nc3ccc4c(c3)OCO4)ccc2O[C@@H]1CN(C)Cc1ccc(Oc2ccccc2)cc1`, for which the relative growth is inactive: 0.961.

Consider `C[C@H](CO)N1C[C@H](C)[C@@H](CN(C)C(=O)Nc2ccccc2C(F)(F)F)OCc2cn(nn2)CCCC1=O`, for which the relative growth was inactive: 1.02.

As for `CC(C)Oc1oc(C(=O)NC2CCCCC2)c(-c2ccc(Cl)cc2)c1S(=O)(=O)c1ccc(Cl)cc1`, the relative growth was inactive: 0.997.

For the compound `O=C(CN1CCOCC1)N[C@H]1CC[C@H](CCn2cc(C3CC3)nn2)O[C@H]1CO`, the relative growth is inactive: 0.988.

With `O=C(C[C@@H]1C[C@@H]2c3cc(NC(=O)Nc4ccc(C(F)(F)F)cc4)ccc3O[C@@H]2[C@H](CO)O1)NCc1ccc(Cl)cc1`, the relative growth was inactive: 0.989.

As for `Cc1ccc(S(=O)(=O)Nc2ccc3c(c2)C(=O)N([C@H](C)CO)C[C@@H](C)[C@@H](CN(C)C(=O)CCC(F)(F)F)OCCCC[C@@H](C)O3)cc1`, the relative growth was inactive: 0.987.

`Cc1ccc(S(=O)(=O)Nc2ccc3c(c2)C(=O)N([C@H](C)CO)C[C@H](C)[C@@H](CN(C)Cc2ccncc2)OCCCC[C@@H](C)O3)cc1`: the relative growth was inactive: 0.997.

Take `CC(C)(C)c1ccc2oc(CN)nc2c1`: the relative growth is inactive: 0.988.

`C[C@H]1CN([C@@H](C)CO)C(=O)c2cc(NC(=O)Nc3cccc4ccccc34)ccc2O[C@H]1CN(C)Cc1ccc(Cl)c(Cl)c1`: the relative growth is inactive: 1.02.

Turning to `COc1ccc(S(=O)(=O)N(C)C[C@@H]2OCCCC[C@@H](C)Oc3ccc(NC(=O)Nc4ccc(F)cc4)cc3C(=O)N([C@H](C)CO)C[C@@H]2C)cc1`, the relative growth was inactive: 1.04.

For the compound `Cc1cc(-c2ccc(NN=C3C=Cc4c(S(=O)(=O)O)cc(S(=O)(=O)O)c(N)c4C3=O)c(C)c2)ccc1NN=C1C=Cc2c(S(=O)(=O)O)cc(S(=O)(=O)O)c(N)c2C1=O`, the relative growth is inactive: 1.44.

As for `C[C@@H]1CN([C@@H](C)CO)C(=O)c2cccc(NC(=O)Nc3ccccc3)c2O[C@H]1CN(C)S(C)(=O)=O`, the relative growth was inactive: 0.924.

Regarding `C[C@@H]1CN([C@H](C)CO)S(=O)(=O)c2ccc(C#CC3(O)CCCC3)cc2O[C@@H]1CN(C)C(=O)Nc1cccc(F)c1`, the relative growth is inactive: 0.957.

Regarding `C[C@H](CO)N1C[C@H](C)[C@H](CN(C)C(=O)Nc2ccc(C(F)(F)F)cc2)Oc2ccc(NC(=O)Cn3cnnn3)cc2C1=O`, the relative growth was inactive: 0.992.

As for `C[C@H]1CN([C@@H](C)CO)C(=O)c2cc(NC(=O)NC3CCCCC3)ccc2O[C@H]1CN(C)Cc1ccc(-c2ccccc2)cc1`, the relative growth was inactive: 0.938.

For the compound `COc1ccccc1S(=O)(=O)N(C)C[C@H]1OCc2cnnn2CCCC(=O)N([C@@H](C)CO)C[C@H]1C`, the relative growth was inactive: 0.98.

Take `COCC(=O)N(C)C[C@@H]1Oc2cc(C#C[C@H](C)O)ccc2S(=O)(=O)N([C@H](C)CO)C[C@@H]1C`: the relative growth was inactive: 1.

Take `O=C(C[C@@H]1CC[C@@H]2[C@H](COC[C@@H](O)CN2C(=O)Nc2ccc(Cl)c(Cl)c2)O1)NCc1ccc(Cl)c(Cl)c1`: the relative growth is inactive: 0.961.

Turning to `CCOC(=O)c1cc2c(c(-c3cccc(C#CCN(C)C)c3)n1)[C@@H](CCO[Si](C)(C)C(C)(C)C)N([S@](=O)C(C)(C)C)C2`, the relative growth was inactive: 1.03.

As to `NC/C(=C/F)CCc1ccc(F)cc1`, the relative growth is inactive: 0.983.

Consider `C[C@@H]1CCCCO[C@@H](CN(C)C(=O)C2CCCCC2)[C@H](C)CN([C@@H](C)CO)C(=O)c2cc(NC(=O)NC3CCCCC3)ccc2O1`, for which the relative growth was inactive: 1.

As for `COc1ccc(S(=O)(=O)Nc2ccc3c(c2)C(=O)N([C@H](C)CO)C[C@H](C)[C@H](CN(C)Cc2ccccc2)OCCCC[C@@H](C)O3)cc1`, the relative growth was inactive: 1.01.

As for `C[C@@H]1CN([C@H](C)CO)C(=O)c2cccc(NC(=O)c3cnccn3)c2O[C@H]1CN(C)Cc1ccccc1`, the relative growth is inactive: 1.02.

Take `O=C(N[C@H](c1ccc(F)cc1)c1ccc2ccccc2n1)C1CCN(CCOc2ccc(Cl)cc2Cl)CC1`: the relative growth was inactive: 0.982.

On to `C[C@@H]1CN([C@H](C)CO)C(=O)c2cc(NS(=O)(=O)c3ccc(F)cc3)ccc2O[C@@H]1CN(C)S(=O)(=O)c1cn(C)cn1`, for which the relative growth is inactive: 1.03.

Take `OC[C@H]1O[C@@H](Oc2ccc(O)cc2)[C@H](O)[C@@H](O)[C@@H]1O`: the relative growth is inactive: 1.01.

As for `C[C@H](CO)N1C[C@H](C)[C@@H](CN(C)S(C)(=O)=O)Oc2ccc(NC(=O)Nc3ccc(C(F)(F)F)cc3)cc2CC1=O`, the relative growth is inactive: 0.977.

In the case of `COCC(=O)N1CCN2C[C@H](C(=O)O)CN(Cc3ccoc3)C[C@@H]2C1`, the relative growth is inactive: 1.02.

For `Cc1ccc(S(=O)(=O)Nc2cccc3c2O[C@@H](CN(C)Cc2ccc(Cl)c(Cl)c2)[C@@H](C)CN([C@H](C)CO)C3=O)cc1`, the relative growth is inactive: 1.03.

As for `C[C@H](CO)N1C[C@H](C)[C@@H](CN(C)Cc2ccc3c(c2)OCCN3C)OCc2cn(nn2)CCCC1=O`, the relative growth was inactive: 0.973.

With `C[C@H]1CN([C@@H](C)CO)C(=O)Cc2cc(NS(=O)(=O)c3ccccc3)ccc2O[C@@H]1CN(C)Cc1ccc(-c2ccccc2)cc1`, the relative growth is inactive: 0.993.

Turning to `C[C@@H]1CN([C@@H](C)CO)C(=O)c2cc(NS(=O)(=O)c3ccc(F)cc3)ccc2O[C@@H]1CN(C)S(C)(=O)=O`, the relative growth was inactive: 1.01.

For the compound `C[C@@H]1CN([C@@H](C)CO)C(=O)CCCn2nncc2CO[C@@H]1CN(C)C(=O)Nc1ccc2c(c1)OCO2`, the relative growth is inactive: 0.974.

In the case of `C[C@@H]1CN([C@@H](C)CO)C(=O)c2cc(NC(=O)C3CCCCC3)ccc2O[C@@H](C)CCCCO[C@@H]1CN(C)C(=O)Nc1ccc(C(F)(F)F)cc1`, the relative growth is inactive: 0.992.

Turning to `Cc1ccc(S(=O)(=O)N(C)C[C@@H]2Oc3ccc(NC(=O)C4CC4)cc3C(=O)N([C@H](C)CO)C[C@@H]2C)cc1`, the relative growth is inactive: 1.04.

Regarding `COc1ccc(S(=O)(=O)N(C)C[C@H]2OCCCC[C@H](C)Oc3ccc(NC(=O)Nc4c(C)noc4C)cc3C(=O)N([C@@H](C)CO)C[C@H]2C)cc1`, the relative growth is inactive: 0.996.

As to `Cc1noc(C)c1NC(=O)N(C)C[C@H]1Oc2c(NC(=O)Nc3cccc4ccccc34)cccc2C(=O)N([C@H](C)CO)C[C@@H]1C`, the relative growth is inactive: 0.99.

Consider `CCc1c(C(=O)OC)nnn1-c1nonc1N`, for which the relative growth was inactive: 0.943.

In the case of `CC(C)NC(=O)N[C@H]1C=C[C@@H](CC(=O)NCCN2CCCC2)O[C@@H]1CO`, the relative growth is inactive: 1.03.

With `C[C@H]1CN([C@@H](C)CO)C(=O)c2cccc(NC(=O)C3CCCCC3)c2O[C@@H]1CN(C)S(=O)(=O)c1cn(C)cn1`, the relative growth is inactive: 1.01.

Consider `C[C@@H]1CN([C@@H](C)CO)C(=O)c2cc(C#CC3(O)CCCC3)cnc2O[C@H]1CN(C)S(=O)(=O)c1ccccc1`, for which the relative growth is inactive: 1.01.

In the case of `C[C@@H]1CN([C@H](C)CO)S(=O)(=O)c2ccc(C#CC3CC3)cc2O[C@@H]1CN(C)C(=O)C1CCCCC1`, the relative growth was inactive: 0.997.

On to `O=C(C[C@@H]1CC[C@@H]2[C@H](COC[C@@H](O)CN2S(=O)(=O)c2ccccc2F)O1)N1CCC(Cc2ccccc2)CC1`, for which the relative growth was inactive: 0.913.

For the compound `O=C(N[C@@H]1CC=CC[C@H](CC(=O)N(CCO)Cc2ccccc2)C(=O)N[C@@H](Cc2ccccc2)COC1=O)OCC1c2ccccc2-c2ccccc21`, the relative growth was inactive: 0.982.

Take `O[C@H]1CCCC[C@@H]1O`: the relative growth is inactive: 1.03.

Turning to `COCc1cn(CC[C@@H]2CC[C@H](NC(=O)CCN3CCCCC3)[C@@H](CO)O2)nn1`, the relative growth was inactive: 1.

Consider `C[C@@H]1CCCCO[C@H](CN(C)Cc2ccc(C(F)(F)F)cc2)[C@H](C)CN([C@H](C)CO)C(=O)c2cc(NC(=O)Nc3ccc4c(c3)OCO4)ccc2O1`, for which the relative growth was inactive: 1.02.

Take `Cc1nnsc1C(=O)NCC1(CO)CC1`: the relative growth is inactive: 1.02.
